Measurements as given in PubChem BioAssay AID1508623 (National Center for Advancing Translational Sciences (NCATS), 2021).
In all, about 48,000 compounds went through this assay and about 450 (0.94%) were called active. The inconclusive results got no clear call from the source; some entries with a clear call stand among them for comparison. Calls come from the whole dose curve; as a rule, active = well fitted inhibition curve with a large enough effect; inconclusive = small, poorly fitted or top-dose-only effect; inactive = no such curve, though single readings can be large or run the other way. Potencies beside an inconclusive call are fits to weak or partial responses and may not hold up.

experiment: Primary qHTS for Identification of Small Molecule Inhibitors of Huntingtin Promoter Activity; settings: HEK293 HTT promoter firefly luciferase reporter (activity 0% = vehicle and -100% = no light), 24 h; activity change, negative = inhibition: at 57.5 µM (top of the series); note: nearly all actives have a fitted effect of over 50% in size
Summary of the method: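 Luminescence was read after Dual-Glo reagent and a 10 min room-temperature incubation. Values were normalized to vehicle (0% activity) and zero RLU (-100% activity). Reporter HEK293 cells had been exposed to compounds (up to 57.5 uM final) for 24 h.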
Potency is the fitted concentration of half-maximal effect; tags give direction and shape of the fitted curve.

Row | Compound | Potency | activity change, negative = inhibition
1 | COc1cccc2sc(N3CCN(C(=O)CS(=O)(=O)c4ccc(Cl)cc4)CC3)nc12 | inconclusive: 39.8 µM [inhibitor, single point] | –
2 | CCN1C(C(=O)c2ccccc2)=C(OC(=O)COc2ccccc2)c2ccccc2S1(=O)=O | inconclusive: 39.8 µM [inhibitor, single point] | –
3 | Cc1cc(C)c(S(=O)(=O)N2CCN(Cc3nc4ccc(C)cc4o3)CC2)c(C)c1 | inconclusive: 35.5 µM [inhibitor, partial curve, poor fit] | –
4 | CCOCCCNC(=O)Nc1cc(C(=O)NCc2ccc(C(C)C)cc2)ccc1N1CCCC1 | inconclusive: 35.5 µM [inhibitor, partial curve, poor fit] | –
5 | COc1cc2c(cc1OC)C(COc1ccc(F)cc1)N(C(=O)c1ccccc1F)CC2 (stereo not drawn) | inconclusive: 39.8 µM [inhibitor, single point] | –
6 | CC(=O)c1ccc(C(=O)N(Cc2cccnc2)c2nc3c(Cl)cccc3s2)cc1 | inconclusive: 39.8 µM [inhibitor, partial curve, poor fit] | –
7 | Cc1cc(C)cc(NC(=O)C2CCN(c3cc(C)nc4c(-c5ccc(Cl)cc5)c(C)nn34)CC2)c1 | inconclusive: 3.55 µM [inhibitor, single point] | –
8 | Cn1nnnc1SCCNCc1ccccc1OCc1ccc(Cl)cc1Cl | inconclusive: 20 µM [inhibitor, single point] | –
9 | COc1ccc(-c2noc(Cn3c(=O)c4ccccc4n(CC(=O)Nc4cccc(C(F)(F)F)c4)c3=O)n2)cc1 | inconclusive: 35.5 µM [inhibitor, partial curve, poor fit] | –
10 | CN1CCN(C2=Nc3cc(Cl)ccc3Nc3ccccc32)CC1 | inconclusive: 21.7 µM [inhibitor, partial curve] | –
11 | O=C(Cc1ccc(F)cc1)NCCc1csc(-c2cccc(F)c2)n1 | inconclusive: 39.8 µM [inhibitor, single point] | –
12 | CCOc1ccc(N(CC)S(=O)(=O)N2CCCC(C(=O)NCc3ccc(Cl)cc3)C2)cc1 (stereo not drawn) | inconclusive: 31.6 µM [inhibitor, single point] | –
13 | CO[C@@H](C(=O)N1Cc2[nH]nc(NC(=O)c3ccc(N4CCN(C)CC4)cc3)c2C1)c1ccccc1 | inactive | –
14 | O=C(c1cccc(Cl)c1)N(Cc1ccco1)Cc1ccccc1Cl | inconclusive: 31.6 µM [inhibitor, single point] | –
15 | Cc1ccc(S(=O)(=O)NCCc2sc3nc(-c4ccccc4)nn3c2C)cc1C | inconclusive: 39.8 µM [inhibitor, single point] | –
16 | O=C(Nc1ccc2nc(SCC(=O)N3CCCc4ccccc43)sc2c1)c1cccc(Cl)c1 | inconclusive: 17.8 µM [inhibitor, partial curve] | –
17 | COCCCNS(=O)(=O)c1ccc(N2CCCCS2(=O)=O)cc1 | inconclusive: 20 µM [inhibitor, partial curve, poor fit] | –
18 | COc1ccc(C(=O)Oc2c(Sc3ccccc3)c(C)nn2-c2ccccc2)cc1OC | inconclusive: 35.5 µM [inhibitor, single point] | –
19 | CC1CCC(Nc2ncnc3onc(-c4ccc(Cl)cc4)c23)CC1 (stereo not drawn) | inconclusive: 20 µM [inhibitor, partial curve, poor fit] | –
20 | Cc1ccccc1CN1C(=O)C(O)(CC(=O)c2ccccc2)c2cc(Cl)ccc21 (stereo not drawn) | inconclusive: 31.6 µM [inhibitor, single point] | –

Row | Compound | Potency | activity change, negative = inhibition
21 | Cc1ccc(CNC(=O)c2oc3ccc(S(=O)(=O)N4CCC(C)CC4)cc3c2C)cc1 | inconclusive: 22.4 µM [inhibitor, partial curve, poor fit] | –
22 | Cc1cccc(OCC(=O)Nc2ccc3nc(Nc4cccc(C(F)(F)F)c4)cc(C)c3c2)c1 | inactive | –
23 | COc1ccc(-c2cc(C(F)(F)F)n3nc(C(=O)O)c(Cl)c3n2)cc1OC | inactive | –
24 | Cc1ccc(-n2ncc(C(=O)N3CCN(Cc4ccccc4)CC3)c2C2CCN(C(=O)OC(C)(C)C)CC2)cc1 | inconclusive: 31.6 µM [inhibitor, single point] | –
25 | CC(=O)c1cc(-c2ccccc2)n(CCC(=O)Nc2ccc(C(C)C)cc2)c1C | inconclusive: 22.4 µM [inhibitor, partial curve] | –
26 | Cc1ccc(-n2ccnc(NCCc3ccc(S(N)(=O)=O)cc3)c2=O)c(C)c1 | inconclusive: 25.1 µM [inhibitor, partial curve, poor fit] | –
27 | Cc1oc(-c2ccc(C(=O)NCc3ccc(F)cc3)cc2)nc1CS(=O)c1ccccc1 (stereo not drawn) | inconclusive: 17.8 µM [inhibitor, partial curve, poor fit] | –
28 | COc1ccccc1OCCn1c(C(C)Oc2ccccc2)nc2ccccc21 (stereo not drawn) | inconclusive: 31.6 µM [inhibitor, partial curve] | –
29 | CC(C)c1ccc(-c2noc(SCC(=O)N3CCN(c4ccc(F)cc4)CC3)n2)cc1 | inconclusive: 39.8 µM [inhibitor, single point] | –
30 | O=C(CCc1ccccc1)N(Cc1cccnc1)c1nc2c(F)cc(F)cc2s1 | inconclusive: 39.8 µM [inhibitor, partial curve, poor fit] | –
31 | Cc1ccc(C)c(Nc2nn3c(=O)c4ccc(C(=O)NCCC5=CCCCC5)cc4nc3s2)c1 | inactive | –
32 | CCOc1ccccc1C(=O)Nc1cccc2ccc(C)nc12 | inconclusive: 10 µM [inhibitor, partial curve, poor fit] | –
33 | O=C(NCCc1csc(-c2ccc(Cl)cc2)n1)c1ccco1 | inconclusive: 31.6 µM [inhibitor, single point] | –
34 | COc1cc(C2CC(=O)c3c([nH]c(C(=O)OCc4ccc(C)cc4)c3C)C2)cc(OC)c1OC (stereo not drawn) | inconclusive: 2 µM [inhibitor, full curve, poor fit] | –
35 | O=C(Cc1ccccc1)N(Cc1cccnc1)c1nc2ccc(Cl)cc2s1 | inconclusive: 39.8 µM [inhibitor, single point] | –
36 | CCCOc1ccc(C(=O)Nc2ccc3oc(-c4ccc5ccccc5c4)nc3c2)cc1 | – | inactive: -7.11% [at 11.5 µM]
37 | O=C(Nc1ccc(Br)cc1F)c1cc(S(=O)(=O)NC2CCCC2)ccc1F | inconclusive: 39.8 µM [inhibitor, partial curve, poor fit] | –
38 | COc1cccc(-c2nnc3n(Cc4ccc(C)cc4)c(=O)c4ccccc4n23)c1O | inconclusive: 31.6 µM [inhibitor, partial curve, poor fit] | –
39 | CCCCN(Cc1cccs1)S(=O)(=O)c1cc(-c2cc(C)no2)ccc1C | inconclusive: 39.8 µM [inhibitor, single point] | –
40 | CN(C)CCN1CCN(c2cccc(Cl)c2)C1=O | inactive | –

Row | Compound | Potency | activity change, negative = inhibition
41 | CC(C)(C)c1ccc(CSc2nc3c(c(=O)[nH]2)CCCC3)cc1 | inconclusive: 20 µM [inhibitor, partial curve, poor fit] | –
42 | CCOc1ccc(Nc2c(S(=O)(=O)c3ccc(Cl)cc3)cnc3ccc(OC)cc23)cc1 | inconclusive: 8.91 µM [inhibitor, partial curve] | –
43 | Cc1ccc(CNC(=O)C2CCN(C(=O)c3ccc(-n4ccc5ccccc54)s3)CC2)cc1 | inconclusive: 28.2 µM [inhibitor, single point] | –
44 | CCOC(=O)CC(NC(=O)CCc1c(C)nc2c(-c3ccccc3)c(C)nn2c1C)c1ccc(C)cc1 (stereo not drawn) | inconclusive: 31.6 µM [inhibitor, partial curve, poor fit] | –
45 | COc1ccc(Cn2ccc3nc(C)c(C(=O)Nc4ccc(F)cc4)cc3c2=O)cc1 | inconclusive: 1.58 µM [inhibitor, partial curve, poor fit] | –
46 | Cc1cccc(NC(=O)CSc2nc3ccc(NC(=O)COc4ccc(Cl)cc4)cc3s2)c1 | inconclusive: 39.8 µM [inhibitor, single point] | –
47 | Cc1c(NC(=O)Cc2ccc(F)cc2)cccc1-c1nc2cccnc2s1 | inconclusive: 25.1 µM [inhibitor, single point] | –
48 | Fc1ccc(-c2nc(-c3cccs3)c(-c3cccs3)[nH]2)cc1 | inconclusive: 39.8 µM [inhibitor, single point] | –
49 | O=C(Nc1nnc(SCc2cc(=O)c3ccccc3[nH]2)s1)c1ccccc1 | inconclusive: 25.1 µM [inhibitor, single point] | –
50 | CN(c1ncnc2c1c(-c1ccccc1)cn2-c1ccc(F)cc1)C1CCCCC1 | inconclusive: 20 µM [inhibitor, partial curve, poor fit] | –
51 | CCOC(=O)c1cc(-c2ccccc2)n(CCC(=O)Nc2ccc(C(F)(F)F)cc2)c1C | inconclusive: 35.5 µM [inhibitor, single point] | –
52 | O=C(NCCn1cc(SCc2cccc(F)c2)c2ccccc21)c1cccc(C(F)(F)F)c1 | inconclusive: 39.8 µM [inhibitor, single point] | –
53 | COc1ccc(C)cc1NC(=O)Nc1cccc(-c2noc(C)n2)c1 | inactive | –
54 | Cc1ccc(-c2cc(-c3ccccc3)c(C#N)c(SCC(O)CS(=O)(=O)Cc3ccccc3)n2)cc1 (stereo not drawn) | inconclusive: 31.6 µM [inhibitor, partial curve, poor fit] | –
55 | CCN(C(=O)CSc1nc2ccccc2n1Cc1ccc(F)cc1Cl)c1ccccc1 | inconclusive: 22.4 µM [inhibitor, partial curve, poor fit] | –
56 | CCCCNc1oc(-c2ccc(COc3ccc(OC)cc3)o2)nc1C#N | inactive | –
57 | COc1ccc(C)cc1N(C)C(=O)CCc1nc(-c2ccccc2F)no1 | inconclusive: 22.4 µM [inhibitor, partial curve, poor fit] | –
58 | CN(C)c1ccc(Nc2ncnc3sc4c(c23)CCCC4)cc1 | active: 11.2 µM | –
